According to article PMC5121418:
Results are given in words; binding and its absence hold for the method and conditions named. Binding seen in cells or lysates may run through a third protein. Some binding calls cover weakened binding; strength is not graded here. For some of these results: Sequences can lack the tags named with a protein. One block for each binder: values may come before it.

Assays:
FLAG-GCN5(S275D) (mouse) = biological target: T1, FLAG-GCN5(S275D) (mouse) (UniProt Q9JHD2); experiment: co-IP; AML12 cell lysates (20 mM Tris-HCl pH 7.5, 150 mM NaCl, 0.5% Nonidet P-40, 2 mM EDTA, 10% glycerol), IP with protein G-Sepharose or Dynabeads Protein G, immunoblot; some cells with CITED2 shRNA or H89
T1 sequence: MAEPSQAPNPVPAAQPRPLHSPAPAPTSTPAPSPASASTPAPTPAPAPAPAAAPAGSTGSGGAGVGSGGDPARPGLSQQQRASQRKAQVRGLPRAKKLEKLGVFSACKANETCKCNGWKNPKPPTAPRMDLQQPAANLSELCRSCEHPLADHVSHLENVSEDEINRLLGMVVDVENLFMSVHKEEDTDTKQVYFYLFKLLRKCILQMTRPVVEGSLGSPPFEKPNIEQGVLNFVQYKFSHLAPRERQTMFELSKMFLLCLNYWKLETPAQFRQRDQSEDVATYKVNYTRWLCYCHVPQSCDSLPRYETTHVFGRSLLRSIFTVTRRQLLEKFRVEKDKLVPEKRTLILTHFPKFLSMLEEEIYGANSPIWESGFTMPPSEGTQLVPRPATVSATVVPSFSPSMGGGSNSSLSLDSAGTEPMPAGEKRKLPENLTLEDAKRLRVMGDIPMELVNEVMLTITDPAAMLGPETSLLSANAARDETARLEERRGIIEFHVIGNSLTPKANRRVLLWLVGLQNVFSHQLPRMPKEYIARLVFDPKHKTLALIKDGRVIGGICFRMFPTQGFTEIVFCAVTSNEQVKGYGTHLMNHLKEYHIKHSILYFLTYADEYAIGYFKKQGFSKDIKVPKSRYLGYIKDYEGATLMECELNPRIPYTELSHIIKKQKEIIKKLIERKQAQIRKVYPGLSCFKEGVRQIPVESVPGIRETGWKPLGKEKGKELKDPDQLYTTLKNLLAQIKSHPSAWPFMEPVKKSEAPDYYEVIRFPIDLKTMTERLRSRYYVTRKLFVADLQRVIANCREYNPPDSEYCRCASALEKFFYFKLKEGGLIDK

[1] = biological target: FLAG-GCN5 (wild type) (mouse) (UniProt Q9JHD2); experiment: as above
FLAG-GCN5(S275A) (mouse) [2] = biological target: T2, FLAG-GCN5(S275A) (mouse) (UniProt Q9JHD2); experiment: as above
T2 sequence: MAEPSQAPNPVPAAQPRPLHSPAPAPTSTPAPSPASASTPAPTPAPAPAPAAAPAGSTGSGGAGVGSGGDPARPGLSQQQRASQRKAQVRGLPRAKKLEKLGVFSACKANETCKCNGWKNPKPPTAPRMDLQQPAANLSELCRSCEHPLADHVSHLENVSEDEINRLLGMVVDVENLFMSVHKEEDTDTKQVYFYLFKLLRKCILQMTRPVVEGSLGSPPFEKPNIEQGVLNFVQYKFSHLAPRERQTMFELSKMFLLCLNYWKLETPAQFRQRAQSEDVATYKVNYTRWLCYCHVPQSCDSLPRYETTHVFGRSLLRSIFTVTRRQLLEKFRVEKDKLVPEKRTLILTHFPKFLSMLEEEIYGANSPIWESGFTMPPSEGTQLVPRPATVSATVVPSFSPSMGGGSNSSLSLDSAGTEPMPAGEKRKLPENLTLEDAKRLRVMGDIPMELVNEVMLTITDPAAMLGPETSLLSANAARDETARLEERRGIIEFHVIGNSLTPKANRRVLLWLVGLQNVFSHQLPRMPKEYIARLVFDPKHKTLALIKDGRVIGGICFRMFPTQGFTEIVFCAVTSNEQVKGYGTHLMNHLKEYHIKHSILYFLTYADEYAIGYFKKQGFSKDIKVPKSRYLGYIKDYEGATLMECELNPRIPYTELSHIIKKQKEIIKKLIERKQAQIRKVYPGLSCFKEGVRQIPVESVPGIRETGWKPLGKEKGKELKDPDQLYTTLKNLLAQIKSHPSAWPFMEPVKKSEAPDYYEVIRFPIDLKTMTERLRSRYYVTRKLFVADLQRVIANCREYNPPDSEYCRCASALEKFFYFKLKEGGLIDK

[3] = biological target: FLAG-GCN5 (wild type) (mouse) (UniProt Q9JHD2); experiment: co-IP; as a4, AML12 cells exposed to pCPT-cAMP before lysis (30 min in Supplementary Fig. 4f,g; time not given for Figure 7g)
FLAG-GCN5(S275A) (mouse) [4] = biological target: T2, FLAG-GCN5(S275A) (mouse); experiment: as above
[5] = biological target: FLAG-GCN5 (mouse liver) (mouse) (UniProt Q9JHD2); experiment: co-IP; liver of lean mice expressing FLAG-GCN5 and HA-CITED2, time course of fasting after refeeding; CITED2 co-immunoprecipitated with GCN5
[6] = biological target: GCN5 in AML12 cells (construct not given) (mouse) (UniProt Q9JHD2); experiment: co-IP; AML12 cell lysates (20 mM Tris-HCl pH 7.5, 150 mM NaCl, 0.5% Nonidet P-40, 2 mM EDTA, 10% glycerol), IP with protein G-Sepharose or Dynabeads Protein G, immunoblot; some cells with CITED2 shRNA or H89
[7] = biological target: GCN5 in AML12 cells (construct not given) (mouse) (UniProt Q9JHD2); experiment: condition: only cells exposed to pCPT-cAMP for 30 min; co-IP; as a4, AML12 cells exposed to pCPT-cAMP before lysis (30 min in Supplementary Fig. 4f,g; time not given for Figure 7g)
Myc-GCN5 (mouse) [8] = biological target: Myc-GCN5 (mouse) (UniProt Q9JHD2); experiment: proximity ligation; in situ PLA (Duolink) in nuclei of primary mouse hepatocytes, exposed or not to pCPT-cAMP for 1 h; signal means proximity <40 nm
Myc-GCN5 (mouse) [9] = biological target: Myc-GCN5 (mouse) (UniProt Q9JHD2); experiment: proximity ligation; in situ PLA (Duolink) in nuclei of primary mouse hepatocytes exposed to pCPT-cAMP for 1 h
[10] = biological target: GCN5 immunoprecipitated from AML12 cells overexpressing GCN5 alone (mouse) (UniProt Q9JHD2); experiment: pull-down; recombinant human CITED2 with GCN5 immunoprecipitated from AML12 cells overexpressing GCN5 alone; only the binder purified

B3: CITED2 in AML12 cells (construct not told in the text) (protein, UniProt O35740 1-269)
chain: MADHMMAMNHGRFPDGTNGLHHHPAHRMGMGQFPSPHHHQQQQPQHAFNALMGEHIHYGAGNMNATSGIRHAMGPGTVNGGHPPSALAPAARFNNSQFMGPPVASQGGSLPASMQLQKLNNQYFNHHPYPHNHYMPDLHPTAGHQMNGTNQHFRDCNPKHSGGSSTPGGAGGSGTPGGSGGTSGGAGGSSAGGSGGGSTMPASVAHVPAAMLPPNVIDTDFIDEEVLMSLVIEMGLDRIKELPELWLGQNEFDFMTDFVCKQQPSRVSC
- binding [6]: binds
- binding [7]: no binding

B4: FLAG-PGC-1α (protein, UniProt O70343 1-797)
chain: MAWDMCSQDSVWSDIECAALVGEDQPLCPDLPELDLSELDVNDLDTDSFLGGLKWCSDQSEIISNQYNNEPANIFEKIDEENEANLLAVLTETLDSLPVDEDGLPSFDALTDGAVTTDNEASPSSMPDGTPPPQEAEEPSLLKKLLLAPANTQLSYNECSGLSTQNHAANHTHRIRTNPAIVKTENSWSNKAKSICQQQKPQRRPCSELLKYLTTNDDPPHTKPTENRNSSRDKCASKKKSHTQPQSQHAQAKPTTLSLPLTPESPNDPKGSPFENKTIERTLSVELSGTAGLTPPTTPPHKANQDNPFKASPKLKPSCKTVVPPPTKRARYSECSGTQGSHSTKKGPEQSELYAQLSKSSGLSRGHEERKTKRPSLRLFGDHDYCQSLNSKTDILINISQELQDSRQLDFKDASCDWQGHICSSTDSGQCYLRETLEASKQVSPCSTRKQLQDQEIRAELNKHFGHPCQAVFDDKSDKTSELRDGDFSNEQFSKLPVFINSGLAMDGLFDDSEDESDKLSYPWDGTQPYSLFDVSPSCSSFNSPCRDSVSPPKSLFSQRPQRMRSRSRSFSRHRSCSRSPYSRSRSRSPGSRSSSRSCYYYESSHYRHRTHRNSPLYVRSRSRSPYSRRPRYDSYEAYEHERLKRDEYRKEHEKRESERAKQRERQKQKAIEERRVIYVGKIRPDTTRTELRDRFEVFGEIEECTVNLRDDGDSYGFITYRYTCDAFAALENGYTLRRSNETDFELYFCGRKQFFKSNYADLDTNSDDFDPASTKSKYDSLDFDSLLKEAQRSLRR
- binding (Myc-GCN5 (mouse) [8]): binds
- binding (Myc-GCN5 (mouse) [9]): no binding (condition: cells exposed to pCPT-cAMP for 1 h)

B5: V5-tagged PGC-1α (protein, UniProt O70343 1-797)
chain: MAWDMCSQDSVWSDIECAALVGEDQPLCPDLPELDLSELDVNDLDTDSFLGGLKWCSDQSEIISNQYNNEPANIFEKIDEENEANLLAVLTETLDSLPVDEDGLPSFDALTDGAVTTDNEASPSSMPDGTPPPQEAEEPSLLKKLLLAPANTQLSYNECSGLSTQNHAANHTHRIRTNPAIVKTENSWSNKAKSICQQQKPQRRPCSELLKYLTTNDDPPHTKPTENRNSSRDKCASKKKSHTQPQSQHAQAKPTTLSLPLTPESPNDPKGSPFENKTIERTLSVELSGTAGLTPPTTPPHKANQDNPFKASPKLKPSCKTVVPPPTKRARYSECSGTQGSHSTKKGPEQSELYAQLSKSSGLSRGHEERKTKRPSLRLFGDHDYCQSLNSKTDILINISQELQDSRQLDFKDASCDWQGHICSSTDSGQCYLRETLEASKQVSPCSTRKQLQDQEIRAELNKHFGHPCQAVFDDKSDKTSELRDGDFSNEQFSKLPVFINSGLAMDGLFDDSEDESDKLSYPWDGTQPYSLFDVSPSCSSFNSPCRDSVSPPKSLFSQRPQRMRSRSRSFSRHRSCSRSPYSRSRSRSPGSRSSSRSCYYYESSHYRHRTHRNSPLYVRSRSRSPYSRRPRYDSYEAYEHERLKRDEYRKEHEKRESERAKQRERQKQKAIEERRVIYVGKIRPDTTRTELRDRFEVFGEIEECTVNLRDDGDSYGFITYRYTCDAFAALENGYTLRRSNETDFELYFCGRKQFFKSNYADLDTNSDDFDPASTKSKYDSLDFDSLLKEAQRSLRR
- binding (FLAG-GCN5(S275D) (mouse)): binds
- binding [1]: binds

Continued, values first:

- binding (FLAG-GCN5(S275D) (mouse)): binds
- binding [1]: binds
- binding (FLAG-GCN5(S275A) (mouse) [2]): binds
- binding [3]: binds
- binding (FLAG-GCN5(S275A) (mouse) [4]): binds
B1: HA-CITED2 (protein, UniProt O35740 1-269)
chain: MADHMMAMNHGRFPDGTNGLHHHPAHRMGMGQFPSPHHHQQQQPQHAFNALMGEHIHYGAGNMNATSGIRHAMGPGTVNGGHPPSALAPAARFNNSQFMGPPVASQGGSLPASMQLQKLNNQYFNHHPYPHNHYMPDLHPTAGHQMNGTNQHFRDCNPKHSGGSSTPGGAGGSGTPGGSGGTSGGAGGSSAGGSGGGSTMPASVAHVPAAMLPPNVIDTDFIDEEVLMSLVIEMGLDRIKELPELWLGQNEFDFMTDFVCKQQPSRVSC

- binding [5]: binds
B2: HA-CITED2 (mouse liver) (protein, UniProt O35740 1-269)
chain: MADHMMAMNHGRFPDGTNGLHHHPAHRMGMGQFPSPHHHQQQQPQHAFNALMGEHIHYGAGNMNATSGIRHAMGPGTVNGGHPPSALAPAARFNNSQFMGPPVASQGGSLPASMQLQKLNNQYFNHHPYPHNHYMPDLHPTAGHQMNGTNQHFRDCNPKHSGGSSTPGGAGGSGTPGGSGGTSGGAGGSSAGGSGGGSTMPASVAHVPAAMLPPNVIDTDFIDEEVLMSLVIEMGLDRIKELPELWLGQNEFDFMTDFVCKQQPSRVSC

- binding [10]: binds
B6: recombinant human CITED2 (protein, UniProt Q99967 1-270)
chain: MADHMMAMNHGRFPDGTNGLHHHPAHRMGMGQFPSPHHHQQQQPQHAFNALMGEHIHYGAGNMNATSGIRHAMGPGTVNGGHPPSALAPAARFNNSQFMGPPVASQGGSLPASMQLQKLNNQYFNHHPYPHNHYMPDLHPAAGHQMNGTNQHFRDCNPKHSGGSSTPGGSGGSSTPGGSGSSSGGGAGSSNSGGGSGSGNMPASVAHVPAAMLPPNVIDTDFIDEEVLMSLVIEMGLDRIKELPELWLGQNEFDFMTDFVCKQQPSRVSC
